Here are results for five sequences from patent US7495088B1, “Modified nucleotide compounds” (Enzo Life Sciences, Inc., priority 1989, dated 2009).

For one data set, the target named is Bovine pancrease DNase I (Bos taurus, UniProt P00639).
For data set [1] the following is noted: RPMI 1640 only (serum-free), about 0.2 uM, 37° C., up to 24 hours.

Regarding “TGACTTAGCTGCAT (chemistry not given here) [Oligomer 14-P-3]”, the “half-life for digestion by DNase I” value with Bovine pancrease DNase I was approximately 10 min.

As for “TGACTTAGCTGCAT [14-Me^5a-3] (chemistry not given here)”, the “Tissue Culture Stabilities, RPMI” value in data set [1] was “Stable”.

Turning to “TGACTTAGCTGCAT [14-Me^5b-3] (chemistry not given here)”, the “Tissue Culture Stabilities, RPMI” value in data set [1] is “Stable”.

With “TGACTTAGCTGCAT [14-Me^6a-3] (chemistry not given here)”, in data set [1], the “Tissue Culture Stabilities, RPMI” value is listed as “Stable”.

Turning to “TGACTTAGCTGCAT [14-Me^6b-3] (chemistry not given here)”, the “Tissue Culture Stabilities, RPMI” value in data set [1] is “Stable”.
